Source: article PMC4336329 (PLoS ONE, 2015)
Screen size: about 310,000 compounds; about 2,200 (0.71%) showed an effect of 50% or more. The effect is printed as a negative number. The list shows a part of the results.

target: human ether-à-go-go-related gene (hERG) potassium channel (human, UniProt Q12809); assay: primary screen, population patch clamp on CHO cells stably expressing hERG
Sequence (Q12809 whole entry, looked up): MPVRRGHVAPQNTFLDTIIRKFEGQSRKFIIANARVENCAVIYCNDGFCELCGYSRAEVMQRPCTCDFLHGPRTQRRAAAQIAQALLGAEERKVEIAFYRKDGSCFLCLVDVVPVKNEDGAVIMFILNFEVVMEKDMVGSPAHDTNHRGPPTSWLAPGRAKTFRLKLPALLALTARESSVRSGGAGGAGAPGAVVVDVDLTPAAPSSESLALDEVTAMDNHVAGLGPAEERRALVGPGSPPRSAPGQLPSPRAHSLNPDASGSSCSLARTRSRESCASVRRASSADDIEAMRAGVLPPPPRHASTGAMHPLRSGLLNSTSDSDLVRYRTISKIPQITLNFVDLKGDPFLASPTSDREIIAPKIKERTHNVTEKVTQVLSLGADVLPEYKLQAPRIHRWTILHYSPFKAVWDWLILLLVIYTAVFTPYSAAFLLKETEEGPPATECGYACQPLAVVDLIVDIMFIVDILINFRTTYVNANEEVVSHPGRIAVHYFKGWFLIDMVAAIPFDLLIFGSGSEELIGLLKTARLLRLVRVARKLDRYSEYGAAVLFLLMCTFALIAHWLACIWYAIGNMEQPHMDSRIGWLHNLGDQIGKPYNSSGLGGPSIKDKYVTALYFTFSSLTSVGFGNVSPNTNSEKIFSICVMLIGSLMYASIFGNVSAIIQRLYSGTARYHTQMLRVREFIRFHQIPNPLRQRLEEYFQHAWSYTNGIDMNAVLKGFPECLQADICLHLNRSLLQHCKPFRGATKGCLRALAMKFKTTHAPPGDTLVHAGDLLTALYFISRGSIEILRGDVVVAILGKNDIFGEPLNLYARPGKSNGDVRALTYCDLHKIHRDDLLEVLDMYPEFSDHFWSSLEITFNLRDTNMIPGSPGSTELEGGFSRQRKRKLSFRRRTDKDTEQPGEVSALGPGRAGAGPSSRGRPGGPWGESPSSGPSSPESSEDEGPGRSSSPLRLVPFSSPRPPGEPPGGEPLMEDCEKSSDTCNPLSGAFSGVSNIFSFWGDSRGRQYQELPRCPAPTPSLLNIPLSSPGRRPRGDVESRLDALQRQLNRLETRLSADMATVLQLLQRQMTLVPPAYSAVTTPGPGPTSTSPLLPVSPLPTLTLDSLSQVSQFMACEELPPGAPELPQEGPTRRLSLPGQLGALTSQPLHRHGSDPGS

Row | SMILES | hERG current change (%, negative = inhibition) at 1uM [%]
1 | CN(c1ccc(OCC(=O)OCc2nnc(-c3ccccc3)o2)cc1)S(=O)(=O)c1ccc(Cl)cc1 | 3.12
2 | c1ccc(Cn2c(CNc3nc4ccccc4n3CCN3CCCCC3)nc3ccccc32)cc1 | -5.91
3 | CCOc1ccc(NC(=O)CN2CCN(S(=O)(=O)c3ccc(Cl)cc3)CC2)cc1 | 10.8
4 | CCc1c(C)nc2c(OC)cccc2c1Cl | 0.737
5 | CCOC(=O)C(NC(=O)OC(C)C)(Nc1nccs1)C(F)(F)F (stereo not shown) | 9.29
6 | O=C(NC1CCCc2ccccc21)C1CCN(S(=O)(=O)c2cccc(C(F)(F)F)c2)CC1 (stereo not shown) | 4.94
7 | CCOC(=O)CN1CC23C=CC(O2)C(C(=O)Nc2ccc(C(C)=O)cc2)C3C1=O (stereo not shown) | 12.1
8 | CCCOC(=O)c1ccc(NC(=O)c2ccccc2OC)cc1 | 11.2
9 | O=C(c1ccc(Cl)c([N+](=O)[O-])c1)N(Cc1ccc(F)cc1)C1CCS(=O)(=O)C1 (stereo not shown) | 8.83
10 | CCN1CCN(c2ccc(S(=O)(=O)N3CCOCC3)cc2NC(=O)c2ccc(C(F)(F)F)cc2)CC1 | 9.9
11 | O=C(Nc1ccc(S(=O)(=O)Nc2ncccn2)cc1)c1cccc(S(=O)(=O)N2CCOCC2)c1 | 13.8
12 | O=C(c1cc(COc2c(F)cccc2F)on1)N1CCC(c2ccccc2Cl)C1 (stereo not shown) | 10.5
13 | CC1(OCON)CCCc2ccccc21 (stereo not shown) | 10.3
14 | O=[N+]([O-])c1c(NCCO)cc(N2CCCCCC2)c2nonc12 | 16.9
15 | O=C(CN1CCc2ccccc2C1)Nc1ccccc1Cl | -1.54
16 | CCOC(=O)c1c(NC(=O)CSc2nc3ccccc3c(=O)n2-c2ccccc2)sc(C(C)=O)c1C | 6.03
17 | COc1cccc(NC2=C(C#N)C(=O)NC(c3cccc(OC)c3O)S2)c1 (stereo not shown) | 11.2
18 | Cc1cc(C(C)(C)C)cc(C)c1CC1=NCCN1.Cl | 6.64
19 | COc1ccc(S(=O)(=O)N2CC(C)N(C(=O)N(C)C)C2C(C)C)cc1 (stereo not shown) | 15.9
20 | COc1ccc(C(=O)COC(=O)CNC(=O)c2ccc(OC)cc2)cc1 | -31
21 | COc1cc(Br)cc(/C=C/c2ccc3cccc(O)c3n2)c1OC | 9.98
22 | c1csc(-c2csc3nc(CN4CCOCC4)nc(NCc4ccc5c(c4)OCO5)c23)c1 | 3.47
23 | Cc1nc(N2CCN(S(=O)(=O)c3ccc(F)cc3)CC2)c2c(C)c(C)sc2n1 | 2.08
24 | COC(=O)c1sccc1NC(=O)Nc1ccc(OC)c(OC)c1 | -22.5
25 | Cc1[nH]c(=O)[nH]c(=O)c1S(=O)(=O)N1CCC(C(=O)N2CCN(c3cccc(C(F)(F)F)c3)CC2)CC1 | 18.8
26 | CCOC(=O)N1CCN(C(=O)N2CCOCC2)CC1 | 14.3
27 | COc1ccc(NS(=O)(=O)c2ccc(Cl)s2)cn1 | 7.65
28 | Cc1cccc(OCC(=O)N(Cc2ccc(N(C)C)cc2)C2CCS(=O)(=O)C2)c1 (stereo not shown) | 7.82

Row | SMILES | hERG current change (%, negative = inhibition) at 1uM [%]
29 | CSc1nc2ncc(C(=O)O)c(N)n2n1 | 8.23
30 | CCc1nnc(NC(=O)CSc2nnc(-c3ccccc3O)n2-c2ccc(C)cc2C)s1 | 17.3
31 | Nc1nc(-c2ccc(-n3nncc3-c3ccco3)cc2)cs1 | 6.48
32 | COc1ccc(C(=O)CSc2nc(N)nc(SC)c2C#N)cc1 | -2.25
33 | Nc1c(N2CCCCC2)c2ccccc2oc1=O | -2.07
34 | CCc1ccc(C(=O)OCC(=O)Nc2cccc(S(=O)(=O)NC3=NCCCCC3)c2)cc1 | 7.29
35 | COc1cc(OC)cc(C(=O)NCC2CCCN(C(=O)c3csc(C(C)C)n3)C2)c1 (stereo not shown) | 7.04
36 | C=CCN(C(=O)CCS(=O)(=O)c1cccc2nsnc12)c1ccccc1 | 5.05
37 | O=C(COC(=O)C1=COCCO1)Nc1ccc(OC(F)F)cc1 | 6.65
38 | COC(=O)C1=CN(c2cc(C)cc(C)c2)C=C(C(=O)OC)C1c1ccc(OC)c(O)c1 | 11.4
39 | CN1CCN(S(=O)(=O)c2ccc(NC(=O)c3cccc(S(=O)(=O)N4CCCC4)c3)cc2)CC1 | -0.705
40 | O=C(CCNC(=O)c1ccccc1Cl)Nc1cc(S(=O)(=O)N2CCOCC2)ccc1N1CCOCC1 | 8.53
41 | COc1ccc(CNc2ccc(C)cc2)cc1Br | 10.7
42 | COc1ccc(-c2noc(CN(C(=O)c3cccs3)C(C)C)n2)cc1 | -14.3
43 | CN(C)/C=C(\C#N)C(=O)c1cccc(Oc2ccc(Br)cc2)c1 | 4.56
44 | COc1ccc(NC(=O)N2CCOCC2)cc1 | 13.6
45 | COc1cccc(C(=O)NCC(c2cccs2)N2CCOCC2)c1 (stereo not shown) | 1.54
46 | Cc1cccc(C(=O)N2CCCC(Nc3ccc(C(C)C)cc3)C2)n1 (stereo not shown) | 3.61
47 | O=C(CN(Cc1ccc(Cl)cc1)C(=O)c1csnn1)NCc1ccc(F)cc1 | -14.8
48 | Cc1ccc(C(=O)NC2CCCc3c2cnn3-c2ccc(F)cc2F)cn1 (stereo not shown) | 13.2
49 | COCCNC(=O)c1cc(-c2cccc(OC)c2)on1 | 19.7
50 | Cc1cccc(COCC(Cc2ccccc2)N2CCN(C(=O)c3ccc(C(F)(F)F)cc3)CCC2=O)c1 (stereo not shown) | 2.27
51 | CN1C(=O)c2cccc3c(S(=O)(=O)Nc4ccccc4F)ccc1c23 | 7.98
52 | C=CCOc1ccc(/C=C2\SC(=S)N(NS(=O)(=O)c3ccc(C)cc3)C2=O)cc1 | 4.41
53 | COc1cc2cc(CN(CCO)C(=O)c3cccs3)c(=O)[nH]c2cc1OC | 1.16
54 | Cc1cccc(C)c1NC(=O)C1CCCN1S(=O)(=O)c1ccccc1 (stereo not shown) | 10.8
55 | CC(C)CNC(=S)NC(=O)c1csc([N+](=O)[O-])c1 | 13.8
